These results are taken from the RNAGym collection of RNA variant scans (doi:10.7554/elife.90254).

The source gives no read counts; variants with many changes may rest on few reads.

B1: LINE1-full (parent)
chain: UACGUAGGUGGUUUUCCCCUGAUAGUGCUAAGGGGGCCUGGAAGUUUGGACUGGGCAGAGCUCAACACAGCGUGGCAAAGUGGCUGUGGCUAGACUGCCUCUCUGGAUUCCUCGUCACUCAGCAGGGCAUCUCUGAGAGAAAUGCC

The data set covers variants of B1. Description: self-cleavage, relative activity (ratio to wild type); higher = more cleavage; in vitro, sequencing; the parent is a self-cleaving ribozyme.
As for UACGUAGGUGGUUUUCCCCUGAUGGUGCUAAGGGGGCCUGGAGGUUUGGACUGGGCAGAGCUCAGCACAGCGUGGCAAAGUGGCUGUAGCUAGACUGCCUCUCUGGAUUCCUCGUCACUCAGCAGGGCAUCUCUGAGAGAAACGCC [A24G A43G A65G G88A U143C], the self-cleavage stood at 0.23.

For the variant UACGUAGGUGGUUUUCCCCUGAUGGUGCUAAGGGGGCCUGGAAGUUUGGGCUGGGCAGAGCUCAAUACAGCGUGGCAAGGUGGCUGUGGCUAGACUGCCUCUCUGGAUUCCUCGUCACUCAGCAGGGCGUCUCUGAGAGAAAUGCC [A24G A50G C66U A79G A129G], the self-cleavage is 0. As for UACGUAGGUGGUUUUCCCCUGAUGGUGCUAAGGGGGCCUGGAAGUUUGGACUGGGCAGAGCUCAACACAGCGUGGCAAUGUGGCUGUGGCUAGACUGCCUCUCUGGAUUCCUCGUCACCCGGCAGGGCAUCUCUGAGAGAAAUGCC [A24G A79U U119C A121G], the self-cleavage is 0.77. With UACGUAGGUGGUUUUCCCCUGAUGGUGCUAAGGGGGCCUGGAAGUUUGGACUGGGCAGAGCUCAACACAGCGUGGCAAAGUGGCUGUGGCUAGACUGCCUCUCUGGGUUCCUCGUCAUUCAGCAGGGCAUCUCUGAGAGAAAUGCC [A24G A107G C118U], the self-cleavage is 0.87. For UACGUAGGUGGUUUUCCCCUGAUGGUGCUAAGGGGGCCUGGAAGUUUGGACUGGGCGGAGCUCAACACAGCGUGGCAAAGUGGCUGUGGCUAGACUGCCUCUCAGGAUUCCUCGUCACUCAGCAGGGCAUCUCUGAGAGAAAUGCC [A24G A57G U104A], the self-cleavage turned out to be 0.54. In the case of UACGUAGGUGGUUUUCCCCUGAUGGUGCUAAGGGGGACUGGAAGUUCGGACUGGGCAGAGCUCAACACAGCGUGGCAAAGUGGCUGUGGCUAGACUGCCUCUCUGGAUUCCUCGUCACUCAGCAGGGCAUCUCUGAGAGAAAUGCC [A24G C37A U47C], the self-cleavage is 1.31.

Turning to UACGUAGGUGGUUUUCCCCUGAUGGUGCUAAGGGGGCCUGGAAGUUUGGACUGGGCAGGGCUCAACACAGCGCGGCAAAGUGGCUGUGGCUAGACUGCCUCUCUGGAUUCCUCGUCACUCAGCAGGGCAUCUCUGAGAGAAAUGCC [A24G A59G U73C], the self-cleavage amounted to 0.28.

For UACGUAGGUGGUUUUCCCCUGAUGGUGCUAAGGGGGCCUGGUAGUUUGGACUGGGCGGAGCUCAACACAGCGUGGCAAAGUGGCUGUGGCUAGACUGCCUCUCUGGAUUCCUCGUCACUCAGCAGGGCAUCUCUGAGGGAAAUGCC [A24G A42U A57G A138G], the self-cleavage was 1.11.

Regarding UACGUAGGUGGUUUUCCCCUGAUGGUGCUAAGGGGGCCUGGAUGUUUGGACUGGGCAGAGCUCAACACAGCGUGGCAAAGUGGCUGUGGCUAGACUGCCUCUCUGGAUUCCUCGUCACUCAGCAGGGCAUCUCUGGGAGAAAUGCC [A24G A43U A136G], the self-cleavage is 0.9.

UACGUAGGUGGUUUUCCCCUGAUGGUGCUAAGGGGGCCUGGAGGGUUGGACUGGGCAGAGCUCAACACAGCGUGGCAAAGUGGCUGUGGCUAGACUGCCUCUCUGGAUUCCUCGUCACUCAGCAGGGCAUCUCUGAGAGAAAUGCC [A24G A43G U45G]: the self-cleavage came to 1.15. Take UACGUAGGUGGUUUUCCCCUGAUGGUGCUUAGGGGGCCUGGAAGUUUGGACUGGGCAGAGCUCAACACAGCGUGGCAAAGUGGCUGUGGCUAGACUGCCUCUCUGGAUUCCUCGUCACUCAGCAGGGCGUCUCUGAGAGAUAUGCC [A24G A30U A129G A141U]: the self-cleavage is 0.92. The same measure for UACGUAGGUGGUUUUCCCCUGAUGGUGCUAAGGGGGCCUGGAAGUUUGGUCUGGGCAGAGCUCAACACAGCGUGGCAAAGUAGCUGUGGCUAGACUGCCUCUCUGGAUUCCUCGUCACUCAGCAGGGCAUCUCUGAGGGGAAUGCC [A24G A50U G82A A138G A140G]: 2.02; for UACGUAGGUGGUUUUCCCCUGAUGGUGCUAAGGGGGCCUGGAAGUUUGGACUGGGCGGAGCUCAACACAGAGUGGCAAAGUGGCUGUGGCUAGACUGCCUCUCUGGAUUCCUCGUCACUCAGCAGGGCAUCUCUAAGAGAAAUGCC [A24G A57G C71A G135A]: 0.13; for UACGUAGGUGGUUUUCCCCUGAUGGUGCUAAGGGGGCCUGGAAGUUUGGACUGGGCAGAGCUCAGCACAGCGUGGCAAAGUGGCUGUGGCUAGACUGCCUCUCUGGAUUCCUCGUCACUCAGCAGGGCAUCUCCGAGAGAAAUGCC [A24G A65G U134C]: 0. As to UACGUAGGUGGUUUUCCCCUGAUGGUGCUAAGGGGGCCUGGAGGUUUGGACUGGGCAGAGCUCAACACAGCGUGGCAAAGUGGCUGUGGCUAGACUGCCUCUCUUGAUUCCUCGUCACUCAGCAGGGCAUCUCUGAGAGAAAUGCC [A24G A43G G105U], the self-cleavage was 1.8.

On to UACGUAGGUGGUUUUCCCCUGAUGGUGCUAAGGGGGCCUGGAGGUUUGGACUGGGCAGAGCUCAACACAGCGUGGCAAAGUGGCUGUGGCUAGACUGCCUCUCUGGAUUCCUCGUCACUCAGCAGGGCAACUCUGAGAGAAAUGCC [A24G A43G U130A], for which the self-cleavage came out at 1.65. Take UACGUAGGUGGUUUUCCCCUGAUGGUGCUAAGGGGGCCUGGAAGUUUGGACUGGGCAGAGCUCAACUCAGCGUUGCAAAGUGGCUGUGGCUAGACUGCCUCUCUGGACCCCUCGUCACCCAGCAGGGCAUCUCUGAGAGAAAUGCC [A24G A67U G74U U108C U109C U119C]: the self-cleavage worked out at 0. As to UACGUAGGUGGUUUUCCCCUGAUGGUGCUAAGGGGGCCUGGAAGUUUGGACUGGGCUGAGCUCAACACAGCGUGGCAAAGUGGCUGUGGCUAGACUGCCUCUCUGGAUUCCCCGUCACUCAGCAGGGCAUCUCUGAGAGAAAUGCC [A24G A57U U112C], the self-cleavage was 0.26. In the case of UACGUAGGUGGUUUUCCCCUGAUGGUGCUAAGGGGGCCUGGAAGUUUGGACUGGGCAGAGCUCAACACAGCGUGGCAAAGUGGCUGUGGCUAGGCUGCCUCUCUGGAUUCCUCGUCACUCAACAGGGCAUCUCUGAGAGAAAUGCC [A24G A94G G122A], the self-cleavage is 0.33.
